The values below come from PubChem BioAssay AID434955 (Southern Research Specialized Biocontainment Screening …, 2010).

The other results are listed elsewhere or left out. The main result of the screen is listed elsewhere. These columns were measured beside it and carry no call. The list favours compounds with an active or inconclusive main result.

A short description of the assay: beta-lactam sensitization of Mtb H37Rv, H37Rv (AID 434955).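 Also: growth measured after seven days incubation then overnight dye step; 0% = bacteria only wells and 100% = bacteria with antibiotic.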 The note with it: M. tuberculosis H37Rv growth with meropenem, percent inhibition; measured here: primary screen without meropenem; at 25 µM.
A word on the inhibition: it is the drop in the measured response relative to a control, in per cent. With `Cc1cccc(C(=O)Nc2nnc(SCC(=O)NCc3ccco3)s2)c1`, the inhibition is 5.04%. The same measure for `COc1ccccc1NC(=O)NCCN1CCN(c2cccc(Cl)c2)CC1`: 10.6%.

As for `CCc1ccc(OCC(=O)Nc2ccc3c(c2)COC3=O)cc1`, the inhibition was found to be 87%. The same measure for `Cc1ccc(-c2nc3ccccc3o2)cc1NC(=S)NC(=O)/C=C/c1ccco1`: -10.3%; for `CCc1noc(C)c1C(=O)OCC(=O)c1ccccc1OC`: 12%; for `O=C(Cc1cccc2ccccc12)N/N=C/c1ccc(O)c([N+](=O)[O-])c1`: 22.5%.

For the compound `COc1cc(/C=N/NC(=O)C(C)Nc2n[nH]c(=O)[nH]c2=O)ccc1O` (centres undefined), the inhibition was -2.67%. The same measure for `Cc1cc(C)cc(OCC(=O)NNC(=O)c2ccoc2C)c1`: -9.06%; for `CCOC(=O)c1[nH]c(C)c(C(=O)Nc2ccccc2F)c1C`: -1.43%. `C=CCn1c(=NC(=O)c2sc3ccccc3c2Cl)sc2cc(S(N)(=O)=O)ccc21`: the inhibition stood at 1.04%. For `CCCCNC(=O)c1onc(CSc2ccc(F)c(F)c2)c1C(=O)O`, the inhibition is -2.03%. With `CCOc1ccc(-c2nnc(-c3cccs3)o2)cc1OCC` the figure was 48.8%. In the case of `CCOC(=O)CSc1nnc(NC(=O)c2cccc(S(=O)(=O)N3CCCCC3)c2)s1`, the inhibition is 49%. As to `O=C1CS/C(=N/N=C\c2ccn[nH]2)N1`, the inhibition is 11.4%. As for `Cc1c(Cl)cccc1NC(=O)CSc1nc2c(c(=O)[nH]1)CCCC2`, the inhibition was -2.92%. With `CC(=O)c1ccc(C(=O)N2CCCC(CNC(=O)c3ccccc3Cl)C2)cc1` (centres undefined) the figure was -4.64%.

Regarding `CC(=O)c1ccc(OCc2cc(C(=O)N(C)Cc3nc4c(C)cccc4[nH]3)no2)cc1`, the inhibition amounted to 10.9%. The same measure for `COc1ccc(CNS(=O)(=O)c2c(C)[nH]c(C)c2C(=O)N2CCCC2)cc1`: 1.27%. With `CN(CC1CCCO1)S(=O)(=O)c1ccc(C(=O)Nc2ccc([N+](=O)[O-])cc2)cc1` (centres undefined) the figure was 16.9%; with `Cc1cccc2nc(COc3ccc4ccccc4c3Br)cn12`, 16.3%.

Take `O=C(COc1ccccc1)Nc1nnc(-c2ccccc2Cl)o1`: the inhibition turned out to be 28.7%.

`CC(C)[C@H](NC(=O)c1c(F)cccc1F)C(=O)OCC(=O)NC(=O)NC1CCCC1`: the inhibition is -2.91%. The same measure for `CCC(CC)c1nc(C(N)=O)c2[nH]c(=O)n(-c3ccc(OC)c(OC)c3)c2n1`: 2.9%; for `COCCCn1c(=O)/c(=C\c2ccccc2OC(C)C)s/c1=C(/C#N)C(=O)Nc1ccc(C(=O)O)cc1`: 33%; for `CC1CCN(CC(CS(=O)(=O)c2ccc([N+](=O)[O-])cc2)N2CCC(C)CC2)CC1` (centres undefined): 3.44%. With `Cc1cc(C)c(OCC(=O)Nc2ccc(N3CCOCC3)cc2)c(Br)c1` the figure was -3.46%; with `Cc1cccc(S(=O)(=O)C(C#N)c2nc3ccccc3nc2N2CCOCC2)c1` (centres undefined), -6.06%; with `CCc1nc(Nc2cccc(OC)c2)c2oc3ccccc3c2n1`, 9.89%. Consider `OC(COC(c1ccccc1)c1ccccc1)CN1CCN(c2cccc(Cl)c2)CC1` (centres undefined), for which the inhibition came out at 21.9%. On to `O=C(CSc1nnc(NC(=O)c2ccccc2)s1)NCC1CCCO1` (centres undefined), for which the inhibition is 0.56%. The same measure for `CCOC(=O)N1CCC(NC(=O)c2ccc(NC(=O)C3CCCO3)cc2)CC1` (centres undefined): -0.87%; for `COc1cc(C(=O)NCCC(=O)NCCN2CCCCCC2)cc(OC)c1OC`: -5.5%; for `Cc1nnc(NC(=O)c2cc(S(=O)(=O)N3CCCCC3)ccc2Cl)s1`: -2.72%. With `CCCN1CCN(CCCNC(=O)CN2C(=O)c3cccnc3Oc3ccc(Cl)cc32)CC1`, the inhibition was -1.63%.

Consider `COc1ccc(N(CC(=O)NC2CCCCCC2)S(=O)(=O)c2ccccc2)cc1Cl`, for which the inhibition was 11.1%. The same measure for `O=C(Nc1ccccc1C(=O)NCCCN1CCOCC1)c1ccc(Cl)cc1`: 3.37%. With `CCOc1ccc(S(=O)(=O)N(C(=O)c2ccco2)c2cc3sc(=O)oc3c3ccccc23)cc1` the figure was 5.37%; with `Nc1nnc(SCC(=O)N2CCN(c3ccccc3)CC2)s1`, 6.69%.

On to `CC[C@]1(c2ccccc2OC)C(=O)N(C(=O)OC)N1C(=O)OC`, for which the inhibition is -0.56%. With `COc1ccc(OC)c(NC(=O)c2sc3nc(Cc4ccccc4)cc(C(F)(F)F)c3c2N)c1` the figure was -2.11%; with `CCn1cc(CN2CCC(C(=O)Nc3ccc(Oc4cccnc4)cc3)CC2)c(C)n1`, 1.35%; with `CN1CCN(C(=O)C2CCC(=O)N(CCc3cccc(F)c3)C2)CC1` (centres undefined), 1.59%. As to `Cc1ccc(NC(=O)C2CCCN(S(=O)(=O)c3ccc4[nH]c(=O)ccc4c3)C2)cc1C` (centres undefined), the inhibition is -7.26%. The same measure for `CC(=O)c1c(NCc2ccccc2)nc(=O)n(-c2ccccc2)c1C`: -9.48%; for `CCN1CCCC1CNC(=O)c1cc2c(=O)n(C)c3ccccc3c2n1C` (centres undefined): -2.36%; for `O=C(NCCCc1ccc(F)cc1)C1CCC(=O)N(CC2CCCCC2)C1` (centres undefined): 3.2%. With `Cc1nn(C)c(Cl)c1CN1CCC(Oc2ccc(C(=O)N3CCCC3)cc2)CC1`, the inhibition was -2.16%. With `Cc1ccc(-n2nnnc2Sc2nc([N+](=O)[O-])nn2C)cc1`, the inhibition worked out at 11.5%.

Regarding `Cc1nn(CC(=O)NCCCN2CCN(Cc3ccccc3)CC2)c(=O)c2cc(-c3ccccc3)nn12`, the inhibition was determined as 0.78%. Consider `Cc1cc(C(=O)Nc2c(F)cc(F)cc2Br)c(C)o1`, for which the inhibition is -8.57%. The same measure for `COc1ccccc1-c1cc(-c2ccccc2)nc(=O)[nH]1`: -6.19%; for `O=C(/C=C/c1ccccc1)NC1CC2CCC1C2` (centres undefined): -10.2%. With `CCCCN(C)Cc1cc(=O)oc2cc3c(cc12)CCCC3` the figure was 34.6%. With `COc1ccc(-c2cc3c(=O)n(CC(=O)NCCCN4CCN(Cc5ccccc5)CC4)ncn3n2)cc1` the figure was 1.94%; with `COC(=O)C1=C(C)NC(=O)/C1=C\c1cc(C)n(-c2c(C)cccc2C)c1C`, 39.2%; with `COc1ccccc1-n1c(SCC(=O)NCC2CCCO2)nc2c([nH]c3ccccc32)c1=O` (centres undefined), -0.58%. Turning to `O=CN1CC(=O)N(c2ccccc2)c2c([nH]c3ccccc23)C1`, the inhibition turned out to be 3.1%. The same measure for `O=C(CN(Cc1ccc(Br)cc1)S(=O)(=O)c1ccccc1)NCc1ccccn1`: 1.29%; for `C=C(C)CSc1nnc([C@@H](N)Cc2c[nH]c3ccccc23)o1`: 6.62%; for `CCN1CCN(S(=O)(=O)c2ccc(C(=O)Nc3ccccc3)cc2)CC1`: -2.24%. The same measure for `CCc1cc(C(=O)NC2CCCc3c2cnn3-c2cccc(C)c2C)n(C)n1` (centres undefined): -5.05%.

Turning to `COCCN(Cc1cc2cccc(C)c2n2nnnc12)C(=O)C(F)(F)F`, the inhibition was found to be 2.65%. The same measure for `COc1ccc(-c2ccc(-c3nnn(CC(=O)N4CCOCC4)n3)cc2)cc1`: 1.35%; for `COCCC1CCCCN1C(=O)c1cc(COc2ccc(C)nc2)on1` (centres undefined): -1.25%. With `O=C(NCc1cccnc1)c1noc2c1CCCC2` the figure was -1.71%; with `Cc1ccc(CC(=O)Nc2nc3ccccc3[nH]2)cc1C`, 16.7%; with `Cc1c(C(=O)N2CCN(c3ccccn3)CC2)oc2c1C(=O)CC(C)(C)C2`, 4.7%. The same measure for `COC(=O)c1[nH]c2ccc(C)cc2c1NC(=O)CN1CCN(c2ccccc2)CC1`: 97%. As to `CCOc1ccc(N=c2cc(-c3ccc(OC)cc3)oc3ccccc23)cc1`, the inhibition turned out to be 2.75%. The same measure for `COc1ccc(C2=NCC(CSc3nnc(-c4ccc5c(c4)OCO5)o3)S2)cc1` (centres undefined): 0.23%; for `COc1ccc2c(c1OC)C(=O)OC2Nc1nc(-c2cc3cc(Br)ccc3oc2=O)cs1` (centres undefined): 39.5%.

For the compound `C=CCc1c(C)nc(SC)nc1Nc1ccc(C(=O)O)cc1`, the inhibition is -7.64%. For `O=C(CSC1CS(=O)(=O)c2cc([N+](=O)[O-])ccc21)NNC(=O)c1ccccc1` (centres undefined), the inhibition is 12.1%. With `CCC1CCCCN1CCCNC(=O)CN1C(=O)c2cccnc2Oc2ccc(Cl)cc21` (centres undefined) the figure was 0.77%; with `CC(C)Oc1ccc(CN2CCC(n3nccc3NC(=O)CCc3ccccc3)CC2)cc1`, 4.95%. Consider `COc1cc(C(C)=O)ccc1OCc1cc(C(=O)N2CCSCC2)no1`, for which the inhibition was -2.7%. The same measure for `Cc1ccccc1OCC(=O)N/N=C/c1cccc(Oc2ccc([N+](=O)[O-])cc2[N+](=O)[O-])c1`: 38.1%; for `Clc1ccc(OCCOCCN2CCc3ccccc3C2)c(Cl)c1`: 97.3%; for `NC(=O)c1cccc2c1-c1ccccc1/C2=N/NC(N)=S`: 1.99%. With `CC(C)Cn1c2c(c(O)c(C(=O)Nc3nccs3)c1=O)CCCC2` the figure was 8.72%; with `COc1ccccc1CNC(=O)c1ccccc1OCc1ccc(F)cc1`, 0.26%; with `Cc1ccc(C)c(N2CCN(S(=O)(=O)c3ccc4c(c3)C(C)(C)C(=O)N4C)CC2)c1`, 0.22%. With `Cc1ccc(C(=O)Nc2nnc(C3=COCCO3)o2)cc1C` the figure was 97.2%; with `O=C(c1ccccc1Br)N1CCN(c2ccccc2)CC1`, 4.19%.

Regarding `CC(C)(C)c1cc(C(=O)N/N=C/c2ccc(-c3ccccc3[N+](=O)[O-])o2)n[nH]1`, the inhibition was 6.86%. With `Cn1c(C(=O)c2ccccc2)nc2ccccc21` the figure was 1.37%.

Regarding `CCOC(=O)c1cnc(-n2nc(C)cc2C)nc1N1CC(C)OC(C)C1` (centres undefined), the inhibition was 39.8%. With `Cc1cc(NC(=O)CSc2nnc(Cn3c(=O)sc4ccccc43)n2-c2ccccc2C)no1` the figure was -14.8%. The same measure for `O=C1c2ccccc2N2C(=O)c3ccccc3C2N1O` (centres undefined): 7.68%. The same measure for `CC(=O)c1ncnn1CC(=O)c1ccc(Cl)cc1Cl`: 0.71%; for `Clc1ccc(Cl)c2sc(N3CCOCC3)nc12`: 5.41%. As for `Cn1c(=O)c(=O)n(C)c2cc(S(=O)(=O)N3CCCC3C(=O)Nc3ccccc3F)ccc21` (centres undefined), the inhibition was -4.32%. The same measure for `CCC(C(=O)NC1C(=O)N2C(C(=O)O)=C(CSc3nnc(C)s3)CSC12)c1ccccc1` (centres undefined): -15.8%; for `COc1ccccc1N1CCN(c2ccc([N+](=O)[O-])cc2Cl)CC1`: 33.1%; for `NC(N)=NS(=O)(=O)c1ccc(N)cc1`: 23.4%. With `CCCCCN1CC(O)=C(c2nc(-c3ccc(Cl)cc3)cs2)C1=N` the figure was -1.04%; with `c1ccc(COc2ccc(-c3sc(Nc4ccccc4)n[n+]3-c3ccccc3)cc2)cc1`, -0.45%; with `Cc1ccc(NC(=O)N2CCCC(c3ccccc3)C2)cc1` (centres undefined), -0.68%. For `O=C(CS(=O)(=O)c1ccc2ccccc2c1)Nc1ccccc1Cl`, the inhibition was -2.46%. `Cn1c(=O)c2c(ncn2CC(=O)N2CCN(S(=O)(=O)c3ccc(Cl)cc3)CC2)n(C)c1=O`: the inhibition was 4.52%.

In the case of `Cc1cc(C)c2c(n1)SCC(=O)N2CC(=O)Nc1ccccc1Cl`, the inhibition is -4.85%. For the compound `Cc1ccsc1/C=c1\sc2ncnn2c1=O`, the inhibition was 0.44%. With `CC(C)(C)c1ccc(C(=O)Nc2nnc(SCC(=O)NCC3CCCO3)s2)cc1` (centres undefined) the figure was 7.39%; with `Cn1ccnc1CN1CCCCC1C(=O)Nc1ccc(Oc2cccnc2)cc1` (centres undefined), 8.89%.
